According to paper PMC5611444:
These are yes or no findings as the source states them, for the method shown. Binding seen in cells or lysates may run through a third protein. Some binding calls cover weakened binding; strength is not graded here. For some of these results: Tags and fused reporters may be left off the sequences shown.

T1: GST-tagged full-length rat Arc (activity-regulated cytoskeleton-associated protein) with C-terminal histidine tag (rat) (UniProt Q63053)
T1 sequence: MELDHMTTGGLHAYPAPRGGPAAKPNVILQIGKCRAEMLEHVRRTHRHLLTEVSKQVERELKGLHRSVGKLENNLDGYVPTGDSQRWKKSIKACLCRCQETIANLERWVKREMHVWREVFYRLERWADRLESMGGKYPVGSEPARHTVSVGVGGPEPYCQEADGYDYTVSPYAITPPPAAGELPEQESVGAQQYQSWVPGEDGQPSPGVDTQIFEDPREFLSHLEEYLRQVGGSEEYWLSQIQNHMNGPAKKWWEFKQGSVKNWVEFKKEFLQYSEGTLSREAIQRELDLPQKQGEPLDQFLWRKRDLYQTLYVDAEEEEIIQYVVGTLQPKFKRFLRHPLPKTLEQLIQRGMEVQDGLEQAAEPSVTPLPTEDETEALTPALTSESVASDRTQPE

T2: calnexin, endogenous human (human (endogenous in HEK293 and SH-SY5Y)) (UniProt P27824)
T2 sequence: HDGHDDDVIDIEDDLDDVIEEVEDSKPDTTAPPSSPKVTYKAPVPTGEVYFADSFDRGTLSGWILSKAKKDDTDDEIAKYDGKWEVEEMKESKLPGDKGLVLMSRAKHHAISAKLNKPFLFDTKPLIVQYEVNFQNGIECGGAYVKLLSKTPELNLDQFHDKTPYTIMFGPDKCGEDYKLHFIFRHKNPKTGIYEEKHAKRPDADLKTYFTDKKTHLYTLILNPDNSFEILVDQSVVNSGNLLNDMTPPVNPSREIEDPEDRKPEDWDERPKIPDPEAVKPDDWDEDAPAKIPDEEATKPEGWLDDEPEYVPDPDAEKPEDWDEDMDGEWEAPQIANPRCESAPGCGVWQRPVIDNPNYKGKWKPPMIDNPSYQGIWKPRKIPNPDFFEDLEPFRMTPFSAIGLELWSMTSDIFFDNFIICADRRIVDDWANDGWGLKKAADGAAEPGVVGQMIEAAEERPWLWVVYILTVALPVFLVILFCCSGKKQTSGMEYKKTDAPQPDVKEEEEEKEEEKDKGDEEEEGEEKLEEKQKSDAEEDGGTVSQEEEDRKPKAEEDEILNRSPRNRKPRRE

T3: calnexin, endogenous rat (rat (endogenous in PC12, hippocampal neurons, brain)) (UniProt P35565)
T3 sequence: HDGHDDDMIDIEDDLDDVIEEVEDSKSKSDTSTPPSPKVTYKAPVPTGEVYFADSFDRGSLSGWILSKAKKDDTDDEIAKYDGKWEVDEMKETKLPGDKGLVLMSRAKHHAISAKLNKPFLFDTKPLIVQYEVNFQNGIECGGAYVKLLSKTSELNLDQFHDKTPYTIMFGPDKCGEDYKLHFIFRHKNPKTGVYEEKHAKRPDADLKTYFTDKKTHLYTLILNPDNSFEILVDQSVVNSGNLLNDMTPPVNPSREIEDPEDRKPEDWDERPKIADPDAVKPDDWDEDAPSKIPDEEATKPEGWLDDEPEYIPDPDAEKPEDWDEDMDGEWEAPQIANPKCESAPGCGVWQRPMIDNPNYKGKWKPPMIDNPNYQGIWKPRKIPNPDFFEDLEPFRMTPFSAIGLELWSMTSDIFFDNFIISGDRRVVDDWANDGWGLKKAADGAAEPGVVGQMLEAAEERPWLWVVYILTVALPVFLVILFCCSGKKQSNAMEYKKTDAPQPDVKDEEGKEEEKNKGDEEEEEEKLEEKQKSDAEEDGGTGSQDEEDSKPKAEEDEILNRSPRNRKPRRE

B1: calnexin, endogenous human (protein, UniProt P27824 21-592)
chain: T2 sequence
B2: calnexin, endogenous rat (protein, UniProt P35565 21-591)
chain: T3 sequence
B3: YFP-Arc (225-396) (domain or fragment, UniProt Q63053 225-396)
chain: EEYLRQVGGSEEYWLSQIQNHMNGPAKKWWEFKQGSVKNWVEFKKEFLQYSEGTLSREAIQRELDLPQKQGEPLDQFLWRKRDLYQTLYVDAEEEEIIQYVVGTLQPKFKRFLRHPLPKTLEQLIQRGMEVQDGLEQAAEPSVTPLPTEDETEALTPALTSESVASDRTQPE
B4: YFP-Arc (200-396) (domain or fragment, UniProt Q63053 200-396)
chain: GEDGQPSPGVDTQIFEDPREFLSHLEEYLRQVGGSEEYWLSQIQNHMNGPAKKWWEFKQGSVKNWVEFKKEFLQYSEGTLSREAIQRELDLPQKQGEPLDQFLWRKRDLYQTLYVDAEEEEIIQYVVGTLQPKFKRFLRHPLPKTLEQLIQRGMEVQDGLEQAAEPSVTPLPTEDETEALTPALTSESVASDRTQPE
B5: YFP-Arc (1-100) (domain or fragment, UniProt Q63053 1-100)
chain: MELDHMTTGGLHAYPAPRGGPAAKPNVILQIGKCRAEMLEHVRRTHRHLLTEVSKQVERELKGLHRSVGKLENNLDGYVPTGDSQRWKKSIKACLCRCQE
B6: YFP-Arc (175-396) (domain or fragment, UniProt Q63053 175-396)
chain: TPPPAAGELPEQESVGAQQYQSWVPGEDGQPSPGVDTQIFEDPREFLSHLEEYLRQVGGSEEYWLSQIQNHMNGPAKKWWEFKQGSVKNWVEFKKEFLQYSEGTLSREAIQRELDLPQKQGEPLDQFLWRKRDLYQTLYVDAEEEEIIQYVVGTLQPKFKRFLRHPLPKTLEQLIQRGMEVQDGLEQAAEPSVTPLPTEDETEALTPALTSESVASDRTQPE
B7: YFP-Arc (241-396) (domain or fragment, UniProt Q63053 241-396)
chain: QIQNHMNGPAKKWWEFKQGSVKNWVEFKKEFLQYSEGTLSREAIQRELDLPQKQGEPLDQFLWRKRDLYQTLYVDAEEEEIIQYVVGTLQPKFKRFLRHPLPKTLEQLIQRGMEVQDGLEQAAEPSVTPLPTEDETEALTPALTSESVASDRTQPE
B8: YFP-Arc full length (1-396) (protein, UniProt Q63053 1-396)
chain: T1 sequence
B9: YFP-Arc (101-240) (domain or fragment, UniProt Q63053 101-240)
chain: TIANLERWVKREMHVWREVFYRLERWADRLESMGGKYPVGSEPARHTVSVGVGGPEPYCQEADGYDYTVSPYAITPPPAAGELPEQESVGAQQYQSWVPGEDGQPSPGVDTQIFEDPREFLSHLEEYLRQVGGSEEYWLS
B10: YFP-Arc (125-396) (domain or fragment, UniProt Q63053 125-396)
chain: RWADRLESMGGKYPVGSEPARHTVSVGVGGPEPYCQEADGYDYTVSPYAITPPPAAGELPEQESVGAQQYQSWVPGEDGQPSPGVDTQIFEDPREFLSHLEEYLRQVGGSEEYWLSQIQNHMNGPAKKWWEFKQGSVKNWVEFKKEFLQYSEGTLSREAIQRELDLPQKQGEPLDQFLWRKRDLYQTLYVDAEEEEIIQYVVGTLQPKFKRFLRHPLPKTLEQLIQRGMEVQDGLEQAAEPSVTPLPTEDETEALTPALTSESVASDRTQPE
B11: YFP-Arc (150-396) (domain or fragment, UniProt Q63053 150-396)
chain: VGVGGPEPYCQEADGYDYTVSPYAITPPPAAGELPEQESVGAQQYQSWVPGEDGQPSPGVDTQIFEDPREFLSHLEEYLRQVGGSEEYWLSQIQNHMNGPAKKWWEFKQGSVKNWVEFKKEFLQYSEGTLSREAIQRELDLPQKQGEPLDQFLWRKRDLYQTLYVDAEEEEIIQYVVGTLQPKFKRFLRHPLPKTLEQLIQRGMEVQDGLEQAAEPSVTPLPTEDETEALTPALTSESVASDRTQPE
B12: Arc, endogenous rat (protein, UniProt Q63053 1-396)
chain: T1 sequence

Target: T1, GST-tagged full-length rat Arc (activity-regulated cytoskeleton-associated protein) with C-terminal histidine tag (rat)
Assay: pull-down; GST-Arc pull-down from HEK293, SH-SY5Y or PC12 lysates; western blot probed for calnexin; only the target purified

binding	Binder
binds	B1
binds	B2

Target: T2, calnexin, endogenous human (human (endogenous in HEK293 and SH-SY5Y))
Assay: co-IP; HEK293 transfected with YFP-Arc constructs; calnexin precipitated with goat anti-calnexin C-20 on Protein G Sepharose, 500 ug total protein, overnight at 4°C; western blot with anti-GFP

binding	Binder
no binding	B3
binds	B4
no binding	B5
binds	B6
no binding	B7
binds	B8
binds	B9
binds	B10
binds	B11

Target: T3, calnexin, endogenous rat (rat (endogenous in PC12, hippocampal neurons, brain))
Assay: proximity ligation; Duolink PLA on coronal rat brain sections 2 h after unilateral HFS of the perforant path; anti-Arc with anti-calnexin C-terminus; dentate gyrus, ipsilateral against contralateral

binding	Binder
binds	B12

Target: T3, calnexin, endogenous rat (rat (endogenous in PC12, hippocampal neurons, brain))
Assay: proximity ligation; Duolink PLA in fixed rat primary hippocampal neurons, naive or treated with BDNF for 4 h; anti-Arc with anti-calnexin C-terminus (two antibody combinations) or anti-calnexin N-terminus

binding	Binder
binds	B12
